According to the supplement of paper PMC7826260:
The other results are listed elsewhere or left out. Each Rep nickase domain was tested in vitro on the same pool of single strands (3 µM enzyme, 1 h, 37 °C); shown is the middle of each 90-letter strand. A value is the log2 ratio of uncut reads to the pool without enzyme; the lower, the more was cut; hits are not called. Because reads are shares of a total, they shift together; where an enzyme cuts many sequences, the uncut ones exceed 0.

What was measured:
Experiment in all cases: uncleaved DNA left, log2 of reads against the no-enzyme library (log2 ratio); higher = less cleavage (more negative = more Rep cleavage of the k-mer); sequences stand for … in CTCGTCCG…ACCGGAGA
[1] = tested on: T1, Rep nickase domain of Muscovy duck circovirus
T1 sequence (residues 1-111, tag not shown): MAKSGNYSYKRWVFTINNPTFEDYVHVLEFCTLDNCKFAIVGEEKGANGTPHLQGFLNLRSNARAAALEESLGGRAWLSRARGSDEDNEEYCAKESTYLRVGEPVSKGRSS
Method: (§1)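 A pool of 90-nt single-stranded DNAs with seven random bases just before the constant AC of the nick site (name = the seven bases) was cut by 3 µM recombinant His6-SUMO-tagged Rep nickase domain (300 nM DNA, 50 mM HEPES pH 8.0, 50 mM NaCl, 1 mM MnCl2, 1 h, 37 °C, three replicates). Uncut DNA was amplified and sequenced.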

[2] = tested on: T2, Rep nickase domain of banana bunchy top virus
T2 sequence (residues 1-94, tag not shown): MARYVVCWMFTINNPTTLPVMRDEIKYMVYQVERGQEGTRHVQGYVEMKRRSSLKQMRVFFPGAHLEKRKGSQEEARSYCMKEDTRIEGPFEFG
Method: as §1

[3] = tested on: T3, Rep nickase domain of cabbage leaf curl virus
T3 sequence (residues 1-116, tag not shown): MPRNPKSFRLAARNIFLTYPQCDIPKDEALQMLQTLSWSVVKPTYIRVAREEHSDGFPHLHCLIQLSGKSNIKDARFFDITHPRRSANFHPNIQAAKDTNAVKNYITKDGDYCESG
Method: as §1

[4] = tested on: T4, Rep nickase domain of chickpea chlorotic dwarf virus
T4 sequence (residues 1-124, tag not shown): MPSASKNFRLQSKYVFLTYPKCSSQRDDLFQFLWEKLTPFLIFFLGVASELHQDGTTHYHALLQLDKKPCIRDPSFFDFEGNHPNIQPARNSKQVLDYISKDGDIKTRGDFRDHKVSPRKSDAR
Method: as §1

[5] = tested on: T5, Rep nickase domain of faba bean necrotic yellows virus
T5 sequence (residues 1-98, tag not shown): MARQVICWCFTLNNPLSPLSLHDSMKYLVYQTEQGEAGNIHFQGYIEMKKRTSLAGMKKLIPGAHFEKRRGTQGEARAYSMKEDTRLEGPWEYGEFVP
Method: as §1

[6] = tested on: T6, Rep nickase domain of maize striate mosaic virus
T6 sequence (residues 1-117, tag not shown): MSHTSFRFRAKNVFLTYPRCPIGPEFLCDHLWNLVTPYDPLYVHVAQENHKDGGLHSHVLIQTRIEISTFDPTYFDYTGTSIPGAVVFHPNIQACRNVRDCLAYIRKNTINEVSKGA
Method: as §1

[7] = tested on: T7, Rep nickase domain of porcine circovirus 2
T7 sequence (residues 2-116, tag not shown): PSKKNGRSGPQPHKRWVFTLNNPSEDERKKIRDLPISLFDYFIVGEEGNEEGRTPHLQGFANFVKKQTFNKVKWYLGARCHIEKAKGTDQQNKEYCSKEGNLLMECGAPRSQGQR
Method: as §1

[8] = tested on: T8, Rep nickase domain of tomato yellow leaf curl virus
T8 sequence (residues 1-136, tag not shown): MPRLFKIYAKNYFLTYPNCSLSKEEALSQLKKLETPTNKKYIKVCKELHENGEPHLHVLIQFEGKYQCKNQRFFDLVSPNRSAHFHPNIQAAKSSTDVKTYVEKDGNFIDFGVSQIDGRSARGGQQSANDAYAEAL
Method: as §1

[9] = tested on: T9, Rep nickase domain of wheat dwarf virus
T9 sequence (residues 1-137, tag not shown): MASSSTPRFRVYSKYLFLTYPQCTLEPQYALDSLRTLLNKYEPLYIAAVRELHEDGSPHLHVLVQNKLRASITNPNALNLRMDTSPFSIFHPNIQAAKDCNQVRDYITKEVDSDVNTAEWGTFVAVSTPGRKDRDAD
Method: as §1

Row | Sequence | uncleaved DNA left (log2) [1] | uncleaved DNA left (log2) [2] | uncleaved DNA left (log2) [3] | uncleaved DNA left (log2) [4] | uncleaved DNA left (log2) [5] | uncleaved DNA left (log2) [6] | uncleaved DNA left (log2) [7] | uncleaved DNA left (log2) [8] | uncleaved DNA left (log2) [9]
1 | ACTATTT | -0.124 | -0.189 | -0.386 | -2.5 | -0.0137 | -0.898 | -3.26 | -0.204 | -0.0796
2 | GTGTTAT | -0.00449 | 0.0153 | 0.332 | 0.934 | 0.11 | 1.71 | -0.217 | 0.0396 | -0.0224
3 | TGCCCTC | -0.0318 | -0.0188 | 0.305 | 0.366 | -0.0871 | 0.88 | -0.0215 | -0.0249 | 0.0196
4 | CCAGGGG | 0.0471 | 0.0432 | 0.154 | 0.515 | -0.113 | 0.178 | 0.247 | 0.0185 | 0.067
5 | TTTGGCT | 0.0545 | 0.00065 | -0.329 | -1.05 | 0.0611 | -0.943 | -0.0128 | -0.0239 | -0.062
6 | GGGCTAG | 0.172 | 0.183 | 0.987 | 1.97 | 0.19 | 2.19 | 0.39 | 0.228 | 0.222
7 | CGCTTTT | -2.4 | -0.0499 | -0.126 | -1.84 | 0.0783 | -0.4 | -3.02 | 0.173 | 0.0719
8 | CTCTCGG | 0.199 | 0.131 | 0.599 | 1.49 | 0.0856 | 1.68 | 0.194 | 0.0361 | 0.0857
9 | CACGATC | 0.138 | 0.0241 | 0.0953 | -0.28 | 0.245 | -0.458 | 0.0912 | 0.0734 | -0.034
10 | TATTATG | -0.361 | -0.0588 | -0.415 | -0.707 | 0.0438 | -1.06 | 0.024 | 0.055 | -0.0125
11 | ACCTGTC | -0.0527 | -0.158 | -0.342 | -0.28 | -0.0664 | -0.828 | -0.0105 | -0.185 | -0.214
12 | TATCCAT | 0.111 | 0.155 | 0.111 | -1.08 | 0.0617 | 0.245 | -0.133 | 0.193 | 0.155
13 | CGGATGC | -0.0268 | -0.0648 | -0.0557 | 0.297 | -0.0655 | 0.0118 | -0.0395 | -0.0856 | -0.0666
14 | TTTTGCT | -1.46 | -0.0645 | -0.79 | -1.4 | -0.0161 | -1.08 | -0.979 | 0.00705 | -0.161
15 | TGAATTA | -0.04 | -0.0114 | 0.079 | -0.816 | -0.00931 | -0.1 | -0.193 | 0.0252 | 0.0796
16 | GTCACAT | 0.0451 | 0.201 | 0.648 | 1.4 | 0.0211 | 1.99 | 0.192 | 0.0777 | 0.188
17 | TGGTCGC | 0.0996 | -0.00657 | -0.208 | -0.367 | 0.134 | -0.55 | 0.117 | 0.0568 | 0.0285
18 | GGCAACT | -0.014 | 0.129 | 0.565 | 0.842 | 0.0511 | 1.86 | 0.123 | 0.0859 | 0.163
19 | GTGGCAC | 0.105 | 0.0932 | 0.348 | 0.836 | -0.136 | 1.93 | 0.0501 | 0.0595 | 0.000969
20 | CGACAAT | -0.0095 | 0.0721 | 0.0766 | 0.499 | 0.0792 | 1.02 | 0.0537 | 0.103 | 0.145
21 | GCGGCGC | 0.0411 | -0.0825 | -0.328 | 0.0131 | 0.042 | -0.18 | 0.0392 | -0.0236 | -0.132
22 | ATCGGAA | 0.0374 | 0.0829 | 0.187 | 0.948 | -0.0437 | 0.817 | 0.0484 | -0.0391 | 0.106
23 | ACGCGAA | 0.0549 | -0.0832 | -0.465 | -0.623 | 0.0253 | -0.847 | 0.203 | 0.108 | -0.0107
24 | GCCCCTC | -0.166 | 0.0382 | 0.155 | 0.332 | 0.00556 | 0.343 | -0.0793 | -0.00521 | -0.0666
25 | GCCCCGT | 0.0147 | -0.0162 | 0.0244 | -0.0261 | 0.0727 | -0.278 | -0.039 | 0.0253 | -0.0322
26 | TATGCGA | 0.0415 | 0.00679 | -0.752 | 0.368 | -0.0406 | -0.801 | 0.0246 | 0.0142 | -0.0989
27 | GCATATG | 0.0608 | 0.0211 | -0.376 | -0.209 | 0.0794 | -0.613 | 0.168 | 0.137 | -0.121
28 | TAGGGCG | 0.0362 | 0.0598 | -0.86 | -0.218 | 0.0766 | -0.913 | 0.166 | 0.0286 | -0.0999
29 | ATATCTT | -3.31 | -0.243 | -1.46 | -2.52 | 0.0226 | -0.885 | -3.23 | 0.0448 | -0.415
30 | CTGGAAT | 0.189 | 0.114 | 0.245 | 1.29 | -0.0493 | 1.52 | 0.114 | 0.177 | 0.204
